According to patent US20230234997A1, “Compositions and Methods for the Treatment of Synucleinopathies” (SOLA BIOSCIENCES LLC, priority 2020, published 2023):
Entries after “also recorded” stand apart in the source; their conditions may differ.

Legend:
Type in all cases: cell-based
[1] = test system: U87-MG glioma cells; assay: LDH activity in culture medium (LDH-Cytox Assay Kit), α-synuclein-mediated cytotoxicity; conditions: lentivirus infection, medium collected at 7-day after infection, listed as JB1-SynBP1
Method: U87MG cells were infected with lentivirus to express either wildtype (“SynWT”) or mutant (“SynA53T”) α-synuclein protein, either alone or with the JB1-SynBP1 construct. The culture medium was collected from U87-MG cells at 7-day after infection. Lactate dehydrogenase (LDH) activity in culture medium was measured by LDH-Cytox™ Assay Kit (BioLegend), and expressed as values relative to LDH levels in cells expressing SynWT alone.
Finally, experiments were conducted to determine whether expression of various fusion protein constructs are able to ameliorate cytotoxicity by expression of mutant (A53T) α-synuclein.

[2] = target: T1, mutant (A53T) α-synuclein (Homo sapiens, UniProt P37840, A53T); assay: Immunoblot of total α-synuclein in lysates of transfected HEK293 cells; conditions: for Total α-synuclein: HEK293, Mutant (A53T), normalized to the wildtype alone control
T1 construct: expressed in transfected cells; host or cells: HEK293
Method: (§1) FIG. 3A: Wild type (WT) α-synuclein (Syn(WT): bars 1-3) or mutant α-synuclein (Syn(A53T): bars 4-6) was expressed alone or with a Flag epitope-tagged fusion protein comprising the J-domain DnaJB1 and a α-synuclein-binding domain (J-SynBP1: bars 2 and 5) or a control fusion protein construct comprising a mutated J-domain (containing a P33Q substitution) and a α-synuclein-binding peptide (J(MT)-SynBP1: bars 3 and 6) in HEK293 cells. Two days later, cells were homogenized in Tris buffer (10 mM Tris, pH7.4, 140 mM NaCl, 1 mM EDTA supplemented with protease inhibitor cocktail). Aggregation of mutant α-synuclein levels were quantified with sandwich ELISA, in which aggregated α-synuclein proteins were captured by coated-Syn-O4 antibody, followed by detection with HRP-conjugated anti-α-synuclein antibody (BioLegend: A15115A). FIG. 3B Lysates were prepared from HEK293 cells transiently transfected with wildtype Syn(WT) (lanes 1-3) or mutant Syn(A53T) (lane 4-6) alone or co-expressed with the fusion protein constructs. After brief sonication, the cell lysate was subjected to SDS-PAGE/immuno blotting with anti-α-synuclein antibody (Ab-2: top panel), Flag antibody (middle panel) or anti-Tubulin antibody (bottom panel).
Cells were transfected with either wildtype (lane 2) or mutant (lanes 3-8) α-synuclein, and also transfected with the JB1-SynBP1 fusion protein (lanes 4-8). Cells were also treated with either Bafilomycin A1, an inhibitor of late phase autophagy (10 nM and 100 nM in lanes 5 and 6, respectively), or MG132, a proteasome inhibitor (0.1 μM and 1 μM in lanes 7 and 8, respectively). Cell lysates were probed with anti-synuclein antibodies.
(§2) Expression vector plasmids encoding various protein constructs were transfected into HEK293 cells with Lipofectamine 3000 transfection reagent (Thermo Fisher Scientific). Cell lysates were analyzed for expressed proteins using immunoblot assays. Samples of culture media were centrifuged to remove debris prior to analysis. Cells were lysed in a lysis buffer (10 mM Tris-HCl, pH 8.0, 150 mM NaCl, 10 mM EDTA, 2% SDS) containing 2 mM PMSF and protease cocktail (Complete Protease Inhibitor Cocktail; Sigma). After brief sonication, the samples were analyzed for expressed proteins using immunoblot assays. For immunoblot analysis, samples were boiled in an SDS-sample buffer and run on polyacrylamide electrophoresis. Thereafter, the separated protein bands were transferred to a PVDF membrane.
Expressed proteins were detected using a chemiluminescent signal. Briefly, blots were reacted with a primary antibody capable of binding the particular epitope (e.g., anti-α-synuclein antibody). After rinsing away the unreacted primary antibody, a secondary, enzyme-linked antibody (e.g., HRP-linked anti-IgG antibody) was allowed to react with the primary antibody molecules bound to the blots. Following rinsing, a chemiluminescent reagent was added, and the resultant chemiluminescent signals in the blots were captured on X-ray film.
Expression vector plasmids encoding various protein constructs were transfected into HEK293 cells with Lipofectamine 3000 transfection reagent (Thermo Fisher Scientific). One day after transfection, culture medium was replaced with fresh medium containing bafilomycin al (BFA) or MG132, and cells were incubated for additional 48 hours. Cells were lysed in lysis buffer (20 mM Tris, pH 7.4, 150 mM NaCl, 1 mM EDTA, 0.1% NP-40) supplemented with protease inhibitor cocktail (Complete Protease Inhibitor Cocktail; Sigma) and 2 mM PMSF. After brief sonication, cell lysates were analyzed in ELISA or immunoblotting assay.

[3] = target: T2, wildtype α-synuclein (Homo sapiens, UniProt P37840); assay: ELISA of α-synuclein secreted into culture media; conditions: cells expressing wildtype α-synuclein, bar 3
T2 construct: expressed in transfected cells; host or cells: HEK293
Excerpt: (§3) Transfection of cells with wildtype (bar 2) or mutant (A53T; bar 4) α-synuclein alone results in secretion of the synucleins as detectable by ELISA. Co-expression with the fusion protein construct comprising either a normal (bar 3) or mutated J-domain (containing a P33Q substitution; bar 5) results in the elimination of detectable levels of secreted α-synuclein.
as §2
(§4) α-synuclein is known to be secreted. We therefore investigated whether the fusion protein constructs were effective in reducing the amount of secreted α-synuclein.

[4] = target: T1, mutant (A53T) α-synuclein; assay: ELISA of α-synuclein secreted into culture media; conditions: cells expressing mutant (A53T) α-synuclein, bar 5
Excerpt: as §3, §2, §4

[5] = target: T3, mutant (A53T) α-synuclein phosphorylated at Ser129 (Homo sapiens, UniProt P37840, A53T); assay: Level of phosphorylated α-synuclein (Ser129) on co-expression of fusion protein constructs; conditions: Table 13, wildtype alone = 100%, mutant alone = 92.1%
T3 construct: expressed in transfected cells

[6] = target: T2, wildtype α-synuclein; assay: Immunoblot of total α-synuclein in lysates of transfected HEK293 cells; conditions: wildtype Syn(WT), lanes 1-3
Method: as §1, with “FIG. 3B Lysates were prepared from HEK293 cells transiently transfected with wildtype Syn(WT) (lanes 1-3) or mutant Syn(A53T) (lane 4-6) alone or co-expressed with the fusion protein constructs. After brief sonication, the cell lysate was subjected to SDS-PAGE/immuno blotting with anti-α-synuclein antibody (Ab-2: top panel), Flag antibody (middle panel) or anti-Tubulin antibody (bottom panel).” left out
Expression vector plasmids encoding various protein constructs were transfected into HEK293 cells with Lipofectamine 3000 transfection reagent (Thermo Fisher Scientific). Cell lysates were analyzed for expressed proteins using immunoblot assays. […] After brief sonication, the samples were analyzed for expressed proteins using immunoblot assays. […]
Expressed proteins were detected using a chemiluminescent signal. […]

B1: Construct 1: J domain from human DnaJB1 fused to 4XGGGGS linker, in turn, fused on its C-terminus to SynBP1 (protein)
chain: MGKDYYQTLGLARGASDEEIKRAYRRQALRYHPDKNKEPGAEEKFKEIAEAYDVLSDPRKREIFDRYGEEGLKGSDIGGGGSGGGGSGGGGSGGGGSAAAKDGIVNGVKA
modifications: JB1-SynBP1
notes: J domain from human DnaJB1 fused to 4XGGGGS linker, in turn, fused on its C-terminus to SynBP1
**Q.** How did the “cytotoxic effect of α-synuclein (LDH activity in culture medium, FIG. 7)” value [1] turn out when B1 was run?
**A.** strongly suppressed; also recorded: amelioration

**Q.** What about the “Total α-synuclein” value ([2]; inhibitor BFA 10 nM, 48 hours) of the same molecule?
**A.** 104.1%

**Q.** And the “Total α-synuclein” value ([2]; inhibitor BFA 100 nM, 48 hours)?
**A.** 123.9%

**Q.** And the “Total α-synuclein” value ([2]; inhibitor MG132 0.1 μM, 48 hours)?
**A.** 86.9%

**Q.** What about the “Total α-synuclein” value ([2]; inhibitor MG132 1 μM, 48 hours) of the same molecule?
**A.** 60.0%

**Q.** What about the “Total α-synuclein” value ([2]; no inhibitor) of the same molecule?
**A.** 99%

**Q.** And the “Total α-synuclein” value ([2]; no inhibitor, listed as JB1-SynBP1)?
**A.** 99.0%

**Q.** What about the “overall level of α-synuclein (FIG. 3B, Western blot)” value ([2]; HEK293 cells, mutant Syn(A53T), lanes 4-6) of the same molecule?
**A.** relatively similar levels

**Q.** And the “α-synuclein secreted into the culture media (FIG. 4)” value [3]?
**A.** no detectable

**Q.** And the “α-synuclein secreted into the culture media (FIG. 4)” value [4]?
**A.** no detectable

**Q.** And the “Phosphorylated α-synuclein” value [5]?
**A.** 51.3%

**Q.** What about the “overall level of α-synuclein (FIG. 3B, Western blot)” value [6] of the same molecule?
**A.** relatively similar levels
